In patent US20260022143A1, “Cyclic Peptide Inhibitors of IL-23” (JANSSEN PHARMACEUTICA NV, priority 2022, published 2026):
Where a name gives a salt, the structure may show the parent alone. Part of at least one peptide drawing is inferred or uncertain, most often the ends. For at least one compound, name, drawing or mass did not settle the structure. Starred links: 1 amine or outer side, 2 acyl side, 3 side chain; linkers in the order of their positions; H or OH if unused. Positions of bridges follow the written chain, without caps; N, C: chain ends. Non-standard residues stand in square brackets, D forms with d. Residues, ends and D or L forms follow the SMILES beside them. Groups on a side chain read outwards from the residue. *: point of attachment. X13 = C[N+]1(Cc2cn(-c3ccc(C[C@H](N[*:1])C(=O)[*:2])cc3)nn2)CCOCC1; Me3N+(CH2)2O(CH2)2O(CH2)2CO = C[N+](C)(C)CCOCCOCCC(=O)*; Ala(1-Me-3-pyridinium) = C[n+]1cccc(C[C@H](N)C(=O)O)c1; PEG12 = NCCOCCOCCOCCOCCOCCOCCOCCOCCOCCOCCOCCOCCC(=O)O; CH2CH2OCH2CH2OCH2CH2NMe3+ = C[N+](C)(C)CCOCCOCC*; Trp(7-Me) = Cc1cccc2c(C[C@H](N)C(=O)O)c[nH]c12; Dab(NMeAc) = CC(=O)N(C)CC[C@H](N)C(=O)O; γGlu = O=C(O)[C@H](CCC(=O)[*:2])N[*:1]; 2Nal = N[C@@H](Cc1ccc2ccccc2c1)C(=O)O; AEF = NCCOc1ccc(C[C@H](N)C(=O)O)cc1; 3Pal = N[C@@H](Cc1cccnc1)C(=O)O; Myristoyl = CCCCCCCCCCCCCC(=O)*; Lys(Me) = CNCCCC[C@H](N)C(=O)O; Agb = N=C(N)NCC[C@H](N)C(=O)O; NMeK = CN[C@@H](CCCCN)C(=O)O; Pen = CC(C)(S)[C@H](N)C(=O)O; αMeK = C[C@](N)(CCCCN)C(=O)O; Lauroyl = CCCCCCCCCCCC(=O)*; Thp = NC1(C(=O)O)CCOCC1; X3 = C[N+](C)(C)CCCCC*; AEEA = NCCOCCOCC(=O)O; Me2NCH2CH2 = CN(C)CC*; Tfa = O=C(C(F)(F)F)*; Sar = CNCC(=O)O

Biological target: T1, IL-23R (Homo sapiens, UniProt Q5VWK5)
T1 construct: host or cells: HEK293
T1 sequence (Q5VWK5 24-629): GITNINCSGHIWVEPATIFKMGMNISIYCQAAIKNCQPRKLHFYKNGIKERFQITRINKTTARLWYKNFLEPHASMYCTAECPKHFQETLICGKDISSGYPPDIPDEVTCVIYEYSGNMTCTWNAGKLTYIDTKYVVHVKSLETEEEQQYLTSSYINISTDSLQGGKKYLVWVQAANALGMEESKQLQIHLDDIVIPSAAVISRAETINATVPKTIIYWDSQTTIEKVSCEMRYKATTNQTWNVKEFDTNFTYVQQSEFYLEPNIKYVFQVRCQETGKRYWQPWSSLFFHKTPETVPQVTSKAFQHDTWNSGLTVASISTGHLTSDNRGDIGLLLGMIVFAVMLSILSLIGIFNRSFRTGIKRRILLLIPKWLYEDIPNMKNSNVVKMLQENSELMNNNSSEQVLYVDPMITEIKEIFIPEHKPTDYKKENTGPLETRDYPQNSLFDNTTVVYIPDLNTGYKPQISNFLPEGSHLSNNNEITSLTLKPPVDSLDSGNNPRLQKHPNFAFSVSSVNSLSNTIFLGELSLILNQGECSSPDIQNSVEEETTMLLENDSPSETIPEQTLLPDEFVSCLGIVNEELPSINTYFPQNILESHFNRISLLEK
Assay: IL23R Reporter Assay
Format: cell-based
Details: HEK293 cells containing IL-23R, IL-12RP1 and STAT-inducible firefly luciferase reporter; 10 ng/mL IL-23 (EC90); 5 h at 37° C.

IC50 [nM] | Structure (SMILES)
74 | CCCCCCCCCCCC(=O)N[C@@H](CCC(=O)NCCOCCOCC(=O)NCCOCCOCC(=O)NCCCC[C@@H]1NC(=O)[C@@H](NC(=O)[C@@H](CCCCNC(=O)COCCOCCNC(=O)COCCOCCNC(=O)CC[C@H](NC(=O)CCCCCCCCCCC)C(=O)O)NC(=O)CCOCCOCC[N+](C)(C)C)C(C)(C)SSC(C)(C)[C@@H](C(=O)N[C@@H](Cc2ccc(OCCCCC[N+](C)(C)C)cc2)C(=O)N[C@@H](Cc2ccc3ccccc3c2)C(=O)NC2(C(=O)N[C@@H](CCCCN(C)C(C)=O)C(=O)N[C@@H](CC(N)=O)C(=O)N[C@@H](Cc3cccnc3)C(=O)N(C)CC(=O)N(C)C)CCOCC2)NC(=O)[C@H](CCCCN(C)C(C)=O)NC(=O)[C@H](Cc2c[nH]c3c(C)cccc23)NC(=O)[C@H]([C@@H](C)O)NC1=O)C(=O)O [compound 380, cPEG3aCO-k(PEG2PEG2gEC12)-Pen(3)-K(PEG2PEG2gEC12)-T-7MeW-K(NMeAc)-Pen(3)-TMAPF-2Nal-THP-K(NMeAc)-N-3Pya-Sar-CON(Me)2] ({Me3N+(CH2)2O(CH2)2O(CH2)2CO}-[dK]([AEEA-AEEA-γGlu-Lauroyl])[Pen]K([AEEA-AEEA-γGlu-Lauroyl])T[Trp(7-Me)][Lys(Me)](Ac)[Pen]Y(X3)[2Nal][Thp][Lys(Me)](Ac)N[3Pal][Sar]-NMe2; disulfide 2-7)
26 | CC(=O)NCCCC[C@H](NC(=O)C1(NC(=O)[C@H](Cc2ccc3ccccc3c2)NC(=O)[C@H](Cc2ccc(OCCN)cc2)NC(=O)[C@H]2NC(=O)[C@H](CCN(C)C(C)=O)NC(=O)[C@H](Cc3c[nH]c4c(C)cccc34)NC(=O)[C@H]([C@@H](C)O)NC(=O)[C@H](CC(N)=O)NC(=O)[C@@H](NC(=O)C(F)(F)F)C(C)(C)SSC2(C)C)CCOCC1)C(=O)N[C@@H](CC(N)=O)C(=O)N[C@@H](Cc1ccc[n+](C)c1)C(=O)N(C)CC(N)=O [compound 51] (Tfa-[Pen]NT[Trp(7-Me)][Dab(NMeAc)][Pen][AEF][2Nal][Thp]K(Ac)N[Ala(1-Me-3-pyridinium)][Sar]-NH2; disulfide 1-6)
320 | CC(=O)NCCCC[C@@H]1NC(=O)[C@H](Cc2c[nH]c3c(C)cccc23)NC(=O)[C@H]([C@@H](C)O)NC(=O)[C@H](CC(N)=O)NC(=O)[C@@H](NC(C)=O)C(C)(C)SSC(C)(C)[C@@H](C(=O)N[C@@H](Cc2ccc(OCCN(C)C)cc2)C(=O)N[C@@H](Cc2ccc3ccccc3c2)C(=O)N[C@@](C)(CCCCN)C(=O)N[C@@H](CCCCNC(C)=O)C(=O)N[C@@H](CC(N)=O)C(=O)NC2(C(N)=O)CCOCC2)NC1=O [compound 31] (Ac-[Pen]NT[Trp(7-Me)]K(Ac)[Pen]Y(Me2NCH2CH2)[2Nal][αMeK]K(Ac)N[Thp]-NH2; disulfide 1-6)
3.5 | CC(=O)NCCCC[C@H](NC(=O)C1(NC(=O)[C@H](Cc2ccc3ccccc3c2)NC(=O)[C@H](Cc2ccc(OCCN)cc2)NC(=O)[C@H]2NC(=O)[C@H](CCN(C)C(C)=O)NC(=O)[C@H](Cc3c[nH]c4c(C)cccc34)NC(=O)[C@H]([C@@H](C)O)NC(=O)[C@H](CC(N)=O)NC(=O)[C@@H](NC(=O)C(F)(F)F)C(C)(C)SSC2(C)C)CCOCC1)C(=O)N[C@@H](CC(N)=O)C(=O)N[C@@H](Cc1cccnc1)C(=O)N(C)CC(N)=O [compound 70] (Tfa-[Pen]NT[Trp(7-Me)][Dab(NMeAc)][Pen][AEF][2Nal][Thp]K(Ac)N[3Pal][Sar]-NH2; disulfide 1-6)
5 | CC(=O)NCCCC[C@@H]1NC(=O)[C@H](Cc2c[nH]c3c(C)cccc23)NC(=O)[C@H]([C@@H](C)O)NC(=O)[C@H](CC(N)=O)NC(=O)[C@@H](NC(C)=O)C(C)(C)SSC(C)(C)[C@@H](C(=O)N[C@@H](Cc2ccc(OCCNC(=O)CCOCCOCC[N+](C)(C)C)cc2)C(=O)N[C@@H](Cc2ccc3ccccc3c2)C(=O)NC2(C(=O)N[C@@H](CNC(C)=O)C(=O)N[C@@H](CC(N)=O)C(=O)N[C@@H](Cc3cccnc3)C(=O)N(C)CC(N)=O)CCOCC2)NC1=O [compound 189]
6.8 | CC(=O)NCCCC[C@@H]1NC(=O)[C@H](Cc2c[nH]c3c(C)cccc23)NC(=O)[C@H]([C@@H](C)O)NC(=O)[C@H](CC(N)=O)NC(=O)[C@@H](NC(=O)[C@@H](CCCCNC(=O)CCOCCOCCOCCOCCOCCOCCOCCOCCOCCOCCOCCOCCNC(C)=O)NC(C)=O)C(C)(C)SSC(C)(C)[C@@H](C(=O)N[C@@H](Cc2ccc(OCCN)cc2)C(=O)N[C@@H](Cc2ccc3ccccc3c2)C(=O)NC2(C(=O)N[C@@H](CCCCNC(C)=O)C(=O)N[C@@H](CC(N)=O)C(=O)N[C@@H](Cc3cccnc3)C(=O)N(C)CC(N)=O)CCOCC2)NC1=O [compound 40] (Ac-[dK]([PEG12-Ac])[Pen]NT[Trp(7-Me)]K(Ac)[Pen][AEF][2Nal][Thp]K(Ac)N[3Pal][Sar]-NH2; disulfide 2-7)
350 | CCCCCCCCCCCCCC(=O)N[C@@H](CCC(=O)NCCOCCOCC(=O)NCCOCCOCC(=O)NCCCC[C@@H]1NC(=O)[C@H](Cc2c[nH]c3c(C)cccc23)NC(=O)[C@H]([C@@H](C)O)NC(=O)[C@H](CC(=O)N(C)C)NC(=O)[C@@H](NC(=O)CCOCCOCC[N+](C)(C)C)C(C)(C)SSC(C)(C)[C@@H](C(=O)N[C@@H](Cc2ccc(OCCCCC[N+](C)(C)C)cc2)C(=O)N[C@@H](Cc2ccc3ccccc3c2)C(=O)NC2(C(=O)N[C@@H](CCCCN(C)C(C)=O)C(=O)N[C@@H](CC(N)=O)C(=O)N[C@@H](Cc3cccnc3)C(=O)N(C)[C@@H](CCCCNC(=O)COCCOCCNC(=O)COCCOCCNC(=O)CC[C@H](NC(=O)CCCCCCCCCCCCC)C(=O)O)C(N)=O)CCOCC2)NC1=O)C(=O)O [compound 355, cPEG3aCO-Pen(3)-N(N(Me)2)-T-7MeW-K(PEG2PEG2gEC14)-Pen(3)-TMAPF-2Nal-THP-K(NMeac)-N-3Pya-NMeK(PEG2PEG2gEC14)-CONH2] ({Me3N+(CH2)2O(CH2)2O(CH2)2CO}-[Pen]D(NMe2)T[Trp(7-Me)]K([AEEA-AEEA-γGlu-Myristoyl])[Pen]Y(X3)[2Nal][Thp][Lys(Me)](Ac)N[3Pal][NMeK]([AEEA-AEEA-γGlu-Myristoyl])-NH2; disulfide 1-6)
2.1 | CC(=O)N[C@@H]1C(=O)N[C@@H](CCNC(=N)N)C(=O)N[C@@H]([C@@H](C)O)C(=O)N[C@@H](Cc2c[nH]c3c(C)cccc23)C(=O)N[C@@H](CCCCN(C)C(C)=O)C(=O)N[C@H](C(=O)N[C@@H](Cc2ccc(OCCOCCOCC[N+](C)(C)C)cc2)C(=O)N[C@@H](Cc2ccc3ccccc3c2)C(=O)NC2(C(=O)N[C@@H](CCCCN(C)C(C)=O)C(=O)N[C@@H](CC(N)=O)C(=O)N[C@@H](Cc3cccnc3)C(=O)N(C)CC(=O)N(C)C)CCOCC2)C(C)(C)SSC1(C)C [compound 412] (Ac-[Pen][Agb]T[Trp(7-Me)][Lys(Me)](Ac)[Pen]Y(CH2CH2OCH2CH2OCH2CH2NMe3+)[2Nal][Thp][Lys(Me)](Ac)N[3Pal][Sar]-NMe2; disulfide 1-6)
150 | CCCCCCCCCCCCCC(=O)N[C@@H](CCC(=O)NCCOCCOCC(=O)NCCOCCOCC(=O)NCCCC[C@H](NC(=O)C1(NC(=O)[C@H](Cc2ccc3ccccc3c2)NC(=O)[C@H](Cc2ccc(OCCCCC[N+](C)(C)C)cc2)NC(=O)[C@H]2NC(=O)[C@H](CCCCNC(C)=O)NC(=O)[C@H](Cc3c[nH]c4c(C)cccc34)NC(=O)[C@H]([C@@H](C)O)NC(=O)[C@H](CC(=O)N(C)C)NC(=O)[C@@H](NC(=O)CCOCCOCC[N+](C)(C)C)C(C)(C)SSC2(C)C)CCOCC1)C(=O)N[C@@H](CC(N)=O)C(=O)N[C@@H](Cc1cccnc1)C(=O)N(C)[C@@H](CCCCNC(=O)COCCOCCNC(=O)COCCOCCNC(=O)CC[C@H](NC(=O)CCCCCCCCCCCCC)C(=O)O)C(N)=O)C(=O)O [compound 351, cPEG3aCO-Pen(3)-N(N(Me)2)-T-7MeW-K(Ac)-Pen(3)-TMAPF-2Nal-THP-K(PEG2PEG2gEC14)-N-3Pya-NMeK(PEG2PEG2gEC14)-CONH2] ({Me3N+(CH2)2O(CH2)2O(CH2)2CO}-[Pen]D(NMe2)T[Trp(7-Me)]K(Ac)[Pen]Y(X3)[2Nal][Thp]K([AEEA-AEEA-γGlu-Myristoyl])N[3Pal][NMeK]([AEEA-AEEA-γGlu-Myristoyl])-NH2; disulfide 1-6)
1.8 | CC(=O)NCCCC[C@H](NC(=O)[C@H](CCC(=O)O)NC(=O)C1(NC(=O)[C@H](Cc2ccc3ccccc3c2)NC(=O)[C@H](Cc2ccc(-n3cc(C[N+]4(C)CCOCC4)nn3)cc2)NC(=O)[C@H]2NC(=O)[C@H](CCCCNC(C)=O)NC(=O)[C@H](Cc3c[nH]c4c(C)cccc34)NC(=O)[C@H]([C@@H](C)O)NC(=O)[C@H](CC(N)=O)NC(=O)[C@@H](NC(C)=O)C(C)(C)SSC2(C)C)CCOCC1)C(=O)N[C@@H](Cc1cccnc1)C(=O)N(C)CC(N)=O [compound 460] (Ac-[Pen]NT[Trp(7-Me)]K(Ac)[Pen][X13][2Nal][Thp]EK(Ac)[3Pal][Sar]-NH2; disulfide 1-6)
